The values below come from PubChem BioAssay AID1745853 (National Center for Advancing Translational Sciences (NCATS), 2022).

Each structure is given as a SMILES string. This is one part of the list. These are further read-outs of the screen, such as a control signal, another cell line or another target. No call is given for them.

Holding throughout (experiment): Primary Screen for Target Class Profiling of Small Molecule Inhibitors of Methyltransferases
For experiment [1], the target named is Glycine N-methyltransferase (Homo sapiens) (UniProt Q14749). As to conditions: purified enzyme, MTase-Glo SAH luminescence; measured here: GNMT inhibition; at 40 µM; stronger effect = lower value. Put shortly: (§1)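 Each enzyme was assayed with SAM and its substrate. SAH formation detected by MTase-Glo luminescence; single-point 40 uM screen[…].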
In experiment [2] the target is Guanidinoacetate N-methyltransferase (Homo sapiens) (UniProt Q14353). As to conditions: purified enzyme, MTase-Glo SAH luminescence; measured here: GAMT inhibition; at 40 µM; stronger effect = lower value. In short, it runs like this: as §1
Experiment [3] deals with Histamine N-methyltransferase (Homo sapiens) (UniProt P50135). Particulars: purified enzyme, MTase-Glo SAH luminescence; measured here: HNMT inhibition; at 40 µM; stronger effect = lower value. Put shortly:
as §1

Experiment [4] deals with Nicotinamide N-methyltransferase (Homo sapiens) (UniProt P40261). As to conditions: purified enzyme, MTase-Glo SAH luminescence; measured here: NNMT inhibition; at 40 µM; stronger effect = lower value. Put shortly: as §1
In experiment [5] the target is Phenylethanolamine N-methyltransferase (Homo sapiens) (UniProt P11086). As to conditions: purified enzyme, MTase-Glo SAH luminescence; measured here: PNMT inhibition; at 40 µM; stronger effect = lower value. In short, it runs like this: as §1
% is set by controls: 0 for no effect and ±100 for the full control effect.

Take `COc1cc(=O)n2c(c1C(=O)NC1CCCCCC1)CCCC2`: the activity change, negative = inhibition in experiment [1] was -0.371%; in experiment [2] it was 3.09%; in experiment [3] it was 2.81%; in experiment [4], 1.22%; in experiment [5], 6.84%.
Turning to `O=C1NC2(Cc3ccccc31)CN([S+](=O)([O-])c1cccs1)C2`, the activity change, negative = inhibition in experiment [1] was -7.01%; in experiment [2], -3.81%; in experiment [3] it was -3.08%; in experiment [4], -23.4%; in experiment [5], -10.1%.
The like results for `CN1C(=O)c2cc3ccccc3n2CC1(C)C(=O)NCC(=O)NCc1ccccc1F` (stereo not given) were, in that order, 4.03%, 4.08%, 5.58%, 12.8% and 1.2%.
As to `CC1(C(=O)NC2CCCCCC2)Cn2c(cc3occc32)C(=O)N1c1ccc(Cl)cc1` (stereo not given), the activity change, negative = inhibition in experiment [1] is -0.325%; in experiment [2], 3.27%; in experiment [3] it was 5.96%; in experiment [4], 7.41%; in experiment [5], 1.01%.
On to `CC(C)Oc1ccc(CNC(=O)c2cc3n(n2)CC(C)(C(=O)NCc2ccc(F)cc2)N(C)C3=O)cc1` (stereo not given), for which the activity change, negative = inhibition is -7.78% in experiment [1]; -5.37% in experiment [2]; -11.1% in experiment [3]; -6.77% in experiment [4]; -3.65% in experiment [5].
The like results for `CC1(C(=O)NC2CCCCC2)Cn2c(ccc2-c2ccco2)C(=O)N1CCCc1ccccc1` (stereo not given) were, in that order, -15.5%, -4.58%, -4.99%, -17.8% and -3.04%.
Taken in the same sequence, the figures for `O=C1CO[C@H]2CCN(Cc3ccccn3)CC[C@@H]2N1c1ccccc1` were -4.42%, 0.697%, -1.88%, 0.979% and -3.21%.
As for `O=C(O)c1cc(-c2ccncc2)cc(S(=O)(=O)N2CCCCCC2)c1`, the activity change, negative = inhibition in experiment [1] was -7.12%; in experiment [2], -5.67%; in experiment [3], -2.79%; in experiment [4], -7.92%; in experiment [5], -1.36%.
The like results for `CN1C(=O)c2cc(C(=O)NCc3ccc(Cl)cc3)nn2CC1(C)C(=O)NCc1ccccc1` (stereo not given) were, in that order, 9.83%, 0%, 8.79%, 11.7% and 6.41%.
Taken in the same sequence, the figures for `COc1ccc2cc3n(c2c1)CC(C)(C(=O)NC1CCCC1)N(Cc1ccco1)C3=O` (stereo not given) were -6.23%, 8.03%, 2.9%, -3.65% and -3.43%.
On to `CN1CCc2c(c3ccccc3n2Cc2ccc(C(=O)NO)cc2)C1`, for which the activity change, negative = inhibition in experiment [1] is -3.2%; in experiment [2], -15%; in experiment [3], -37%; in experiment [4] it was -24.7%; in experiment [5] it was -51.5%.
As for `Cc1ccc(NC(=O)CSc2nnc3[nH]c(=O)c(C)nn23)c(C)c1`, the activity change, negative = inhibition is 0.572% in experiment [1]; 4.38% in experiment [2]; -3.88% in experiment [3]; -7.83% in experiment [4]; -5.76% in experiment [5].
Taken in the same sequence, the figures for `CCn1c2c(c(=O)n1-c1ccccc1)CCN(C(=O)C1CCC1)C2` were 4.28%, 3.66%, 1.24%, -2.63% and -12.2%.
The like results for `COC(=O)C1=COC(OC2OC(CO)C(O)C(O)C2O)C2C(C)C(OC(C)=O)C(OC(=O)c3ccccc3)C12` (stereo not given) were, in that order, 2.38%, 2.05%, 9.37%, -9.51% and -2.35%.
Taken in the same sequence, the figures for `Cc1cccc(NC(=O)Cn2nc3n(C(C)C)c(=O)c4ccc(C(=O)NC(C)C)cc4n3c2=O)c1` were 3.4%, 4.16%, 2.78%, 1.56% and -1.24%.
In the case of `CC1CCCN(C(=O)Cn2c(=O)oc3cc(S(=O)(=O)N4CC(C)CC(C)C4)ccc32)C1` (stereo not given), the activity change, negative = inhibition in experiment [1] was 0.183%; in experiment [2], -7.22%; in experiment [3], 3.16%; in experiment [4] it was -2.3%; in experiment [5], -10.5%.
The like results for `CCc1cc2c(cc3n2CC(C)(C(=O)NC2CCCCCC2)N(Cc2ccccc2OC)C3=O)s1` (stereo not given) were, in that order, 0.623%, 0%, 1.4%, 2.07% and -2.64%.
Taken in the same sequence, the figures for `CCc1noc([C@@H]2CC(F)(F)CN2C(=O)c2ccco2)n1` were -0.222%, 2.52%, 1.25%, 0.343% and -0.064%.
The like results for `CCCC1c2ccc(C)n2CCN1C(=O)Nc1cc(Cl)c(OC)cc1OC` (stereo not given) were, in that order, -3.02%, 2.01%, -7.37%, -2.92% and -8.07%.
For `COCCOCCOc1ccc(C2=N[C@@](C)(C(=O)O)CS2)c(O)c1`, the activity change, negative = inhibition was 1.27% in experiment [1]; -0.724% in experiment [2]; 4.28% in experiment [3]; -7.42% in experiment [4]; 2.65% in experiment [5].
Taken in the same sequence, the figures for `O=C(c1c[nH]c(=O)[nH]1)N1CC[C@@H]2[C@@H](CCC(=O)N2CC2CCNCC2)C1` were 0.843%, 1.08%, 2.3%, -1.04% and 0.888%.
The like results for `CCOCCCNC(=O)CCn1ccc2cc(S(=O)(=O)N3CCCC3)ccc21` were, in that order, -1.28%, 4.86%, -0.064%, 2.8% and 1.38%.
As to `CCCn1c(=O)c2ccc(C(=O)NC(C)CC)cc2n2c(=O)n(CC(=O)Nc3ccc(CC)cc3)nc12` (stereo not given), the activity change, negative = inhibition in experiment [1] was 1.12%; in experiment [2] it was -0.041%; in experiment [3], -2.13%; in experiment [4], -3.02%; in experiment [5], -5.06%.
In the case of `COCCc1noc(CC2CCOC3(CCN(C(=O)C4CCOCC4)CC3)C2)n1` (stereo not given), the activity change, negative = inhibition in experiment [1] was 1.18%; in experiment [2], -1.26%; in experiment [3], 1.89%; in experiment [4] it was -1.67%; in experiment [5], -2.27%.
For `CCCCN(CC)CCN1C(=O)c2cc3sccc3n2CC1(C)C(=O)NC1CCCCCC1` (stereo not given), the activity change, negative = inhibition in experiment [1] is -5.15%; in experiment [2], 3.72%; in experiment [3], -21.7%; in experiment [4], -8.8%; in experiment [5], -1.14%.
As to `CC1=C2C[C@@]3(C)C(CCC[C@@H]3C)C(O)C2OC1=O` (stereo not given in full), the activity change, negative = inhibition was 4.94% in experiment [1]; 5.81% in experiment [2]; 6.63% in experiment [3]; -9.58% in experiment [4]; 6.42% in experiment [5].
The like results for `O=C(NCc1ccc2c(c1)OCO2)c1nc(-c2ccc(F)cc2)c2cnccn12` were, in that order, -7.47%, -0.259%, -0.238%, -6.79% and 12.3%.
Consider `CCCCN1C(=O)c2cc(C(=O)Nc3cc(Cl)ccc3C)nn2CC1(C)C(=O)NC1CCCC1` (stereo not given), for which the activity change, negative = inhibition in experiment [1] turned out to be 2.93%; in experiment [2], 0%; in experiment [3] it was 2.17%; in experiment [4] it was 2.16%; in experiment [5], 2.59%.
The like results for `COCc1ncc(C)n1CCNC(=O)c1cc(-c2cc(C)ccc2C)n[nH]1` were, in that order, -2.16%, -0.791%, -3.94%, -5.75% and -3.32%.
Consider `CN1C(=O)CC[C@H]1c1cccnc1`, for which the activity change, negative = inhibition in experiment [1] is 3.33%; in experiment [2], 8.16%; in experiment [3], 2.05%; in experiment [4], -2.67%; in experiment [5] it was 9.06%.
The like results for `COCCCNC(=O)c1cc(C)nc2onc(C3CCCNC3)c12` (stereo not given) were, in that order, -1.89%, 0.726%, 0.824%, 3.41% and 0.939%.
